Reference: publication PMC6919601, “Identification of Plasmodium dipeptidyl aminopeptidase allosteric inhibitors by high throughput screening” (PLoS ONE, 2019)
Hit rate of the full screen: of about 110,000 compounds, about 230 (0.21%) showed an effect of 50% or more. The list shows a part of the results.

molecular target: DPAP1 (Plasmodium falciparum, UniProt Q8IIJ9); assay: primary screen, percent inhibition; read by cleavage of a fluorogenic dipeptide substrate; higher = more effect of the substance; design: species or system P. falciparum D10 trophozoite lysates; single well
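Note: 30 min substrate incubation versus DMSO and 10 µM JCP410 controls.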

Sequence of DPAP1 (Q8IIJ9 whole entry, looked up): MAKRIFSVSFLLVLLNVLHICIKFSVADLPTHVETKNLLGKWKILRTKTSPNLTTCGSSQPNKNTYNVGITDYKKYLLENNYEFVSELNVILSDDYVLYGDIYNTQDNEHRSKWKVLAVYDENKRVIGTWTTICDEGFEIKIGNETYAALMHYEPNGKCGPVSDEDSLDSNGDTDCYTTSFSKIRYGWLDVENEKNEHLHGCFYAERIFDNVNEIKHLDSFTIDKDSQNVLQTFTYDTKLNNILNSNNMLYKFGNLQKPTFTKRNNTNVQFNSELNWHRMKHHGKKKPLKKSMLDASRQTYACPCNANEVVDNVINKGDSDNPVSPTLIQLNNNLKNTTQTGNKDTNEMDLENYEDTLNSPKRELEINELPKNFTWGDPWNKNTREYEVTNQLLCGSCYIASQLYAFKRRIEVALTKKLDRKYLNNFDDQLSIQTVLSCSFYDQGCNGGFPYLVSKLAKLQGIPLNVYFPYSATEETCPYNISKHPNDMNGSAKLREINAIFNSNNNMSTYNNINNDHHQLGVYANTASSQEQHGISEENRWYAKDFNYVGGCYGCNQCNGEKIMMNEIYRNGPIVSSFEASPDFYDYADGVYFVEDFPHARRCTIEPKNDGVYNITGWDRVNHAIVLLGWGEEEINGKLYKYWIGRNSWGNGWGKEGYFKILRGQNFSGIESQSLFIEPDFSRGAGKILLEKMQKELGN

First: Cc1ccc(C)c(NC(=O)c2cc3ccccc3o2)c1
Second: Cc1ccc(C)c(S(=O)(=O)Nc2ccc(O)cc2)c1
The “% Inhibition @ 10 uM” value of the first is higher: 4.32% for the first, -0.088% for the second.

Compared with O=C(c1ccc2c(c1)OCO2)N1CCN(Cc2ccccc2)CC1, CCCN1CCN(C(=O)C(c2ccccc2)N2Cc3ccccc3C2=O)CC1 (centres unmarked) is higher in “% Inhibition @ 10 uM” value: -2.85% for the first, 7.62% for the second.

Compared with Cc1ccc(-c2nc(CS(=O)(=O)CC(=O)NCc3ccccn3)c(C)o2)cc1, CCN(CC)CCNC(=O)CS(=O)(=O)Cc1nc(-c2ccc(OC)cc2)oc1C is lower in “% Inhibition @ 10 uM” value: 1.55% for the first, -3.7% for the second.

First: COCC(=O)Nc1ccc2ccccc2c1
Second: COc1ccc(NC(=O)COc2cccc(C(C)=O)c2)cc1
The “% Inhibition @ 10 uM” value of the first is higher: 0.634% for the first, -3.92% for the second.

Compared with Cn1c(CNc2ccccc2)nc2ccccc21, COc1ccc(C(=O)n2c(-c3ccco3)nc3ccccc32)cc1 is lower in “% Inhibition @ 10 uM” value: 3.9% for the first, 3.72% for the second.

Going from CCOC(=O)NC1(C(F)(F)F)C(=O)NC(C)=C1C#N (centres unmarked) to CCOC(=O)N1CCC(NC(=O)c2cc3n(n2)C(C(F)(F)F)CC(c2ccc(OC)cc2)N3)CC1 (centres unmarked), the “% Inhibition @ 10 uM” value rises from -1.94% to 3.66%.

Compared with Cc1cc(Cl)ccc1OCC(=O)Nn1c(C)ccc1C, Cc1c(Cl)cccc1NC(=O)CC(=O)Nc1cccc(Cl)c1C is higher in “% Inhibition @ 10 uM” value: 0.9% for the first, 6.51% for the second.

Compared with O=C(CSc1nc2ccccc2s1)NCCCN1CCOCC1, Cc1nn(CCCC(=O)NCCN2CCOCC2)c(=O)c2c1sc1ccccc12 is lower in “% Inhibition @ 10 uM” value: 14.6% for the first, -6.3% for the second.

Compared with COc1ccc(OC)c(C2C3=C(O)CCCC3=NC(C)=C2C(=O)Nc2ccc(F)cc2F)c1 (centres unmarked), CC1=C(C(=O)OCc2ccccc2)C(c2cccc(F)c2)C2=C(O)CC(C)(C)CC2=N1 (centres unmarked) is higher in “% Inhibition @ 10 uM” value: -0.413% for the first, 1.13% for the second.

Compared with COc1ccc(CN2CCCN(C)CC2)cc1Br, COc1ccc(-c2c(C)nn3c(N4CCN(C)CC4)cc(C)nc23)cc1OC is lower in “% Inhibition @ 10 uM” value: 3% for the first, -3.7% for the second.

Compared with Cc1ccc(C(=O)N/C(=C\c2ccc(F)cc2)C(=O)NCc2ccncc2)cc1, CC1CC(C)CN(CCCNC(=O)c2ccc(CNS(=O)(=O)c3ccc(F)cc3)cc2)C1 (centres unmarked) is lower in “% Inhibition @ 10 uM” value: 1.52% for the first, -0.971% for the second.

Compared with C=CCNC(=O)C1CCC(CNc2nc(S)nc3ccccc23)CC1 (centres unmarked), C=CCNC(=O)c1ccc(CN2CCc3ccccc3C2)cc1 is lower in “% Inhibition @ 10 uM” value: 17% for the first, 1.39% for the second.

Compared with COc1ccccc1CNC(=O)CCCn1sc2ccccc2c1=O, CCc1ccccc1CNC(=O)[C@H](CCSC)N1Cc2ccccc2C1=O is lower in “% Inhibition @ 10 uM” value: 3.24% for the first, -6.03% for the second.

Compared with C=CCn1c(COc2ccc(Cl)c3cccnc23)nnc1SCC(N)=O, CCCCOc1ccc(C(=O)NC2=NC(=O)CC(c3ccccc3Cl)N2)cc1 (centres unmarked) is higher in “% Inhibition @ 10 uM” value: -3.33% for the first, 0.6% for the second.

Compared with CCOc1cccc(/C=N\n2cnnc2)c1O, CCCC(=O)Nc1c(O)nc2ccccc2c1O is higher in “% Inhibition @ 10 uM” value: 6.23% for the first, 31.7% for the second.

Going from CCC(C)Nc1nc2c(S(=O)(=O)c3ccc(C(C)C)cc3)nnn2c2ccccc12 (centres unmarked) to CCS(=O)(=O)n1nc(-c2ccc(Cl)cc2)nc1SC, the “% Inhibition @ 10 uM” value rises from -10.5% to 3.88%.

Going from CCN1CCN(C(c2cccc(F)c2)c2sc3nc(C)nn3c2O)CC1 (centres unmarked) to FC(F)(F)c1nnc2ccc(N3CCN(C(c4ccccc4)c4ccccc4)CC3)nn12, the “% Inhibition @ 10 uM” value rises from -4.69% to -4.04%.

First: CCCCNC(=O)C1CCN(C(=O)C2CCN(S(=O)(=O)c3ccc(C)cc3)CC2)CC1
Second: CC1CCC(C(=O)NC(C(=O)NCCCN2CCOCC2)C(C)C)CC1 (centres unmarked)
The “% Inhibition @ 10 uM” value of the first is lower: -1.34% for the first, 4.02% for the second.

Compared with CC(C)OCCCNC(=O)c1cc2c(=O)oc3ccccc3c2s1, CCN(CC)c1ccc2cc(-c3nc4ccccc4o3)c(=O)oc2c1 is lower in “% Inhibition @ 10 uM” value: 2.73% for the first, -0.239% for the second.

Compared with COc1ccc(-c2cc(C(=O)NCCC3=CCCCC3)[nH]n2)cc1, COc1ccc(CNC(=O)CN(C)S(=O)(=O)c2cc(Br)cnc2N)cc1 is lower in “% Inhibition @ 10 uM” value: -2.37% for the first, -5.37% for the second.

First: CCC1CCCCN1CCCNC(=O)Cn1cc2c(n1)CCCC2 (centres unmarked)
Second: Cc1ccc2c(c1)-c1c(cnn1CC(=O)NCCOC13CC4CC(C)(CC(C)(C4)C1)C3)CO2
The “% Inhibition @ 10 uM” value of the first is higher: 1.8% for the first, -6.42% for the second.

Compared with CC1C(=O)C(C)C(c2cc(Cl)ccc2O)NC1c1cc(Cl)ccc1O (centres unmarked), O=C(O)c1cc(Cl)ccc1NS(=O)(=O)c1cccc2nsnc12 is higher in “% Inhibition @ 10 uM” value: 1.02% for the first, 4.8% for the second.

First: Cc1ccc(-n2c(C)cc(C(=O)C(=O)Nc3nncs3)c2C)c(C)c1
Second: Cc1ccc(C(=O)N/C(=C\c2cccs2)C(=O)N2CCCC2)cc1C
The “% Inhibition @ 10 uM” value of the first is higher: 0.655% for the first, -0.968% for the second.

Going from O=C(Nc1nn[nH]n1)C1CCCCC1 to C=CCSC1=C(C#N)C2(CCCCC2)C(C#N)C(=O)N1 (centres unmarked), the “% Inhibition @ 10 uM” value falls from 1.8% to -0.736%.

First: CCN1CCCC1CNc1ncnc2c1cnn2-c1cccc(Cl)c1 (centres unmarked)
Second: Cc1ccccc1Cn1cnc2c(cnn2-c2ccccc2)c1=O
The “% Inhibition @ 10 uM” value of the first is higher: 2.07% for the first, -0.0309% for the second.

First: CC1CN(C(=O)C2CC3CCC2C3)C(C)CN1C(=O)C1CC2CCC1C2 (centres unmarked)
Second: NC(=O)CC(=O)NC12CC3CC(CC(C3)C1)C2
The “% Inhibition @ 10 uM” value of the first is higher: 2.13% for the first, 0.827% for the second.

Compared with Cc1ccc2[nH]c(SCC(=O)Nc3ccc(Br)cc3)nc2c1, Cc1cc(NC(=O)COCc2cc(-c3ccc(F)cc3)on2)no1 is higher in “% Inhibition @ 10 uM” value: -1.94% for the first, 0.44% for the second.

Compared with Cc1nonc1NCn1cnnn1, Cc1ccc2c(c1)-c1c(cnn1CC(=O)N(C)CCC#N)CO2 is lower in “% Inhibition @ 10 uM” value: 1.37% for the first, -6.95% for the second.

First: O=C(c1ccc(N2C(=O)C3C4C=CC(C4)C3C2=O)cc1)N1CCCCCC1 (centres unmarked)
Second: O=C(c1ccc(CS(=O)(=O)c2c(Cl)cccc2Cl)o1)N1CCCCCC1
The “% Inhibition @ 10 uM” value of the first is lower: -2.18% for the first, -1.28% for the second.

First: O=C(NCC1(c2ccccc2)CCCC1)c1ccc(NC(=O)c2ccco2)cc1
Second: O=C1CC(c2ccc(Cl)cc2)N2CCNC2=C1C(=O)Nc1ccccc1 (centres unmarked)
The “% Inhibition @ 10 uM” value of the first is higher: 0.161% for the first, -4.67% for the second.

First: CCOC(=O)C1=c2s/c(=C/c3cccs3)c(=O)n2C(N)=C(C#N)C1c1cccs1 (centres unmarked)
Second: CCOC(=O)c1s/c(=N\C(=O)c2ccc(OC)c(OC)c2)n(C)c1C
The “% Inhibition @ 10 uM” value of the first is lower: 1.67% for the first, 4.67% for the second.

Compared with Cc1ccc(-c2cc(C(F)F)n3ncc(C(=O)N(C)Cc4cnn(C)c4)c3n2)cc1, COc1cccc(OCC(=O)N(Cc2nc(-c3ccccc3)no2)C(C)C)c1 is lower in “% Inhibition @ 10 uM” value: -1.88% for the first, -3.68% for the second.

Cc1ccc(-c2c(C#N)c(N)nc3c2CCCCC3)o1 was tested, and the “% Inhibition @ 10 uM” value was -3.14%.
